Measurements: the supplement of paper PMC3334620
Over roughly 33,000 sequences, “E-score (-0.5 to 0.5)” has its median near -0.017; the highest 2% begin near 0.3. Some of the results follow.

Target: T1, Sut1 (UniProt P53032)
T1 sequence: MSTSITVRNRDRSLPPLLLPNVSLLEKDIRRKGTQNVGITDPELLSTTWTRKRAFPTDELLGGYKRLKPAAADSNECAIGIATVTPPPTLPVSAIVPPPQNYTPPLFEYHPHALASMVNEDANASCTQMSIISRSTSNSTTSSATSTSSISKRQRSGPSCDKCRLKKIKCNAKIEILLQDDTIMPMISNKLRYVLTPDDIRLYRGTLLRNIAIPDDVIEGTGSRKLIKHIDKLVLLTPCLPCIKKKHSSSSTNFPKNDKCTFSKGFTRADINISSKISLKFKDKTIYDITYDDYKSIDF
Experiment: PBM E-score (8-mer binding enrichment) (E-score (-0.5 to 0.5)); higher = stronger / more preferred TF binding; most listed sequences are background and not binding sites
Conditions: protein concentration: 200 nM; construct: GST-full length
Experimental: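 Universal 'all 10-mer' protein binding microarrays (Agilent AMADID 015681) probed with GST-tagged S. cerevisiae TFs (full-length or DBD) made by in vitro transcription/translation (PURExpress), about 100-200 nM. Bound TF was detected with fluorescent anti-GST. Each ungapped 8-mer (which stands for itself and its reverse complement) is scored by the PBM enrichment score (E-score), a modified Wilcoxon-Mann-Whitney statistic from -0.5 to +0.5, computed with the Universal PBM Analysis Suite. Scale: above 0.35 generally sequence-specific binding.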

Sequence	PBM E-score
ATCTGACA	-0.111
AATGCCCT	-0.287
ACAGAAAC	0.115
CGTATCTA	0.0945
CAGGTAAC	-0.168
CGATATCG	0.126
CCCTCAAC	-0.184
AGATGAGG	-0.0886
GAAACCTC	-0.086
AGGAGTGC	-0.143
AGTGACAA	0.111
CCTCTCCG	0.178
TCACGACA	-0.142
ACGACTCG	-0.172
AGTAGGCA	0.154
AGTAACCC	0.0188
TTACGAAA	0.241
AACTATTG	0.15
AAGCCATT	-0.00374
CCCAAAGC	-0.0681
GATACTAC	-0.0164
ATAGCTTC	0.118
GAATATAA	0.153
CTCGGGTC	-0.0594
AGGAGGCC	-0.186

Sequence	PBM E-score
CGGTAATA	0.27
CGCCTTCC	0.0146
CGACGACC	0.0495
AAGGTTAA	0.139
ACGTAGCA	-0.16
GCCCGGCC	-0.0583
ATTCCAAC	-0.0428
AGCCGGAA	0.233
CGTGCGTA	-0.152
GCCAACCA	-0.0657
AGATTAGG	-0.0597
GGCGGATA	-0.119
AAACATTC	0.115
GAATGTAA	0.18
CGCGCTAA	0.14
CGAGCACA	-0.0247
AGCCTTTG	-0.165
AACGGAAT	0.294
ACAGCCGA	-0.268
CTAAGATC	0.093
GCGTCCGA	-0.09
GGTAGGTA	0.0335
CCCAATAG	-0.0632
AGCGTTTC	0.0496
CCAGTCGG	0.0988

Sequence	PBM E-score
GATAGACA	-0.095
ATCCTGTG	-0.0363
ATTAGTAC	0.125
AAGTATGG	0.0429
AATAATTA	0.329
ATGGGCGG	-0.142
CATTAGCA	-0.0751
CTTTCCGC	0.254
AGGTGACT	-0.0698
TGACCTAA	0.0458
CCACATTC	0.00225
GCAGATCC	-0.0446
AGGGGGCC	-0.465
AGGTCCCG	0.0931
GTAAGGCA	-0.14
GTCCATCA	-0.0674
CACGGCTG	-0.414
CCCCCGGC	-0.251
GATCCCGA	-0.064
ATATGGAG	0.1
CTGGGAGA	-0.157
CAGCCCCC	-0.284
AGCTGGGG	-0.138
GTACCGAA	-0.0465
ACCGTACC	-0.185

Sequence	PBM E-score
ACGAATTC	0.0693
CGCACCAA	-0.169
GGGATCGA	-0.18
CGTCCTCA	-0.163
AAAAACAA	0.316
GGCTGAGA	0.0723
ATGCAGAG	-0.162
ATGGCGAA	0.0828
GACAACTC	0.214
CCATGGTC	-0.177
ACCCCCTC	-0.352
GAGGATAC	-0.142
CCAGTTCA	-0.0558
AATCATTA	0.203
CCTCAGTA	-0.122
ATAGTTGC	0.0377
CAGGTGGC	-0.219
CGACCTCC	0.173
TACAGAAA	0.156
CGTAGTCA	-0.0242
ACCAGCCG	0.0118
ACTTGAAT	0.234
AGCTCAAA	0.175
ATAAGGCG	-0.126
CGGTCAAA	0.14

Sequence	PBM E-score
GGAGGAAC	-0.117
AGGCTTGA	-0.0347
ATCTCAAG	0.106
CGACGTGA	-0.0762
CATCGCGA	-0.0789
CGGCACCC	-0.103
CCGGTCAA	0.0902
CAAGACTC	-0.00522
CCTACTTC	0.0118
AAAGGGGT	-0.231
AACAACGG	0.175
ATATACAC	0.248
AGACACTG	-0.268
ATCAGCGC	0.014
GCCTCCGA	0.0353
CCGCTCAA	-0.078
CTGCATCA	-0.124
CCTGTGTC	-0.193
AGGGGAAG	-0.327
CGTAGTAC	-0.0996
AGTCAATG	-0.0996
CTAAATAG	0.0251
GATCGGGA	-0.148
GAGCAGCA	0.00604
ACAGCAAT	0.154

Sequence	PBM E-score
CCGTTCCC	-0.0906
ATACGATC	0.0375
GATCTGCC	-0.101
AAAGAATC	0.14
AAGGGGTG	-0.252
CGCTACTC	0.0248
ACTTCGAT	0.0824
AGTGTAGC	-0.123
GCCTGCAA	-0.147
AGAGCTAG	-0.194
CTAGAGGA	-0.182
GTAGTCAC	-0.203
GAAAAGTA	0.14
AATGTGCA	0.118
GGAGTGCA	0.18
GTAAATAC	-0.0034
AGTGAGCG	-0.0213
AAGCAAGC	-0.115
AAGTTTCC	0.212
TTGCGAAA	0.158
GAATGAGA	0.198
AGCATGGG	-0.138
AGAAATAC	0.101
AGGATACG	-0.289
AACAAATT	0.306

Sequence	PBM E-score
CTTTCTTC	0.136
CGATGTAG	-0.109
GGAACATA	0.0983
CTAACGGA	0.305
AGCTAGCT	0.00936
AGTATTTA	0.205
CTGAAACA	-0.00856
ATGGTAGA	0.0301
GAGGAGGC	-0.194
AACACGGT	-0.0556
AGCTAGTA	0.037
CTTCAAAC	0.153
GCGATGAA	0.00043
CCTGTTTA	-0.0053
CACGTGGC	-0.386
CGAGTAAG	0.0896
GGCCCACA	-0.0879
GGACCACC	0.0358
CTTAAACC	0.0346
GACAATCA	-0.00977
ATCCGTAC	0.178
ACATGCAA	0.0642
